Laboratory results from PubChem BioAssay AID1347417 (National Center for Advancing Translational Sciences (NCATS), 2020).
Screen size: about 120,000 compounds; about 5,300 (4.4%) were called active. The inconclusive results got no clear call from the source; some entries with a clear call stand among them for comparison. The call rests on the fitted dose curve; in most records, active means well fitted inhibition curve with a large enough effect; inconclusive means small, poorly fitted or top-dose-only effect; inactive means no such curve, though single readings can be large or run the other way. Potencies of inconclusive entries are doubtful fits and often do not repeat.

Assay: qHTS Primary assay for Inhibitors of Plasmodium falciparum Dd2 growth in vitro; further: nearly all actives have a fitted effect of over 65% in size;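 on activity, negative = inhibition: plate controls were DMSO vehicle for no effect and reference drug for full effect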
Details: P. falciparum Dd2 growth, SYBR Green, 72 h; activity, negative = inhibition: at 28.9 µM (top of the series) unless noted; series mostly up to 28.9 µM
How it was run: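 Infected erythrocytes (Dd2, 0.3% parasitemia, 2.5% hematocrit final) are added to compound in RPMI-1640/Albumax II medium, grown 72 h at 37C in low oxygen, then lysed with saponin/Triton-X containing SYBR Green and read by fluorescence.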
Potency means the concentration at half of the fitted maximal effect; tags describe the fitted curve by direction and shape.

Question: With `Cc1cc2nc(-c3cccc(NC(=O)COc4ccc(C(C)C)cc4)c3)oc2cc1C` as the compound, how does the Potency read?
Answer: inconclusive: 11.2 µM [inhibitor, single point]

Question: With `COc1ccc(CCC(=O)N2CCC3(CC2)NCCc2c3[nH]c3ccc(OC)cc23)cc1` as the compound, how does the Potency read?
Answer: inconclusive: 4.47 µM [inhibitor, partial curve, poor fit]

Question: Which Potency does the source give for `Cc1ccc(C(=O)N2CCCCCCNC(=O)CC2c2ccccc2)s1` (stereo not drawn) here?
Answer: inconclusive: 11.2 µM [inhibitor, partial curve, poor fit]

Question: With `CC(=O)N1Cc2ccccc2CC2(CCCCN2CC2CCCC2)C1` (stereo not drawn) as the compound, how does the Potency read?
Answer: inconclusive: 15.8 µM [inhibitor, partial curve, poor fit]

Question: For `CC1=C[C@@H](CN2CCC(C(N)=O)CC2)[C@H](C(C)C)C[C@H]1Cc1nnc(-c2cncn2C)o1`, which Potency is on record?
Answer: inconclusive: 17.8 µM [inhibitor, single point]

Question: Which “activity, negative = inhibition” value does the source give for `CC(C)(C)c1cc(C[C@@H]2CC[C@H](O)[C@@H](CNC(=O)C3CCC3)O2)no1` here?
Answer: inactive: 0.214% [at 44.1 µM]

Question: Which Potency does the source give for `C=CCNC(=O)[C@@H]1Cc2cn(CC3CC3)c3cccc(c23)[C@H](CC(C)C)N1` here?
Answer: inconclusive: 10 µM [inhibitor, partial curve, poor fit]

Question: With `CN1C[C@@H](NC(=O)CC(C)(C)CC(=O)O)C[C@H]1c1nc(-c2ccc3ccccc3c2)no1` as the compound, how does the “outcome” value read?
Answer: inactive

Question: With `O=C(OCc1ccccc1)N1CCC2(CC1)C(=NC1CCCCC1)NC(=O)N2c1cccnc1` as the compound, how does the Potency read?
Answer: inconclusive: 0.708 µM [inhibitor, full curve, poor fit]

Question: For `O=C1c2c(nc(CNCc3cccc(F)c3)n2Cc2ccccc2)NCCN1Cc1cccc(Cl)c1`, which Potency is on record?
Answer: inconclusive: 0.447 µM [inhibitor, full curve, poor fit]

Question: Which Potency does the source give for `O=C(c1ccccc1OCC1CCCN(Cc2ccncc2F)C1)N1CCCC1` (stereo not drawn) here?
Answer: inconclusive: 1.12 µM [inhibitor, partial curve]

Question: Which Potency does the source give for `CN(C(=O)c1ccc2cccc(F)c2n1)C1CCCN(CCCc2ccccc2)C1` (stereo not drawn) here?
Answer: inconclusive: 8.91 µM [inhibitor, partial curve]

Question: For `CC(C)Oc1ccc(CNS(=O)(=O)c2csc(C(N)=O)c2)cc1`, which Potency is on record?
Answer: inconclusive: 10 µM [inhibitor, single point]

Question: With `Cc1cccc(CNC(=O)Cc2ccc(N(Cc3ccccc3)C(=O)c3ccco3)cc2)c1` as the compound, how does the “outcome” value read?
Answer: inactive

Question: With `COc1ccc(-c2nc(SCC(=O)Nc3ccc4c(c3)OCO4)c(-c3ccc(F)cc3)[nH]2)cc1OC` as the compound, how does the Potency read?
Answer: inconclusive: 12.6 µM [inhibitor, single point]

Question: For `O=C1c2ccccc2C(=O)C1(c1ccccc1)N1CCN(c2cccc(C(F)(F)F)c2)CC1`, which Potency is on record?
Answer: inconclusive: 17.8 µM [inhibitor, single point]

Question: Which Potency does the source give for `CC(C)c1ccc(N2C(=O)CSC23C(=O)N(Cc2ccccc2F)c2ccccc23)cc1` (stereo not drawn) here?
Answer: inconclusive: 17.8 µM [inhibitor, single point]

Question: For `Cc1ccc(NC(=O)N2CCC(CN3CCCCCC3)CC2)c(Cl)c1`, which Potency is on record?
Answer: inconclusive: 10 µM [inhibitor, single point]

Question: For `CN1CC(=O)N(c2ccccc2)Cc2c1ncnc2N1CCOCC1`, which Potency is on record?
Answer: inconclusive: 31.6 µM [inhibitor, single point]

Question: For `Cc1ccccc1N(C)C1CN(Cc2cccs2)C1`, which Potency is on record?
Answer: inconclusive: 1.12 µM [inhibitor, partial curve, poor fit]

Question: For `CCOc1ccccc1CNC(=O)c1cc2cn(C(C)C)cc2s1`, which “activity, negative = inhibition” value is on record?
Answer: inactive: -11.8%

Question: Which Potency does the source give for `Cc1nc(-c2ccccc2Br)cc([C@H]2CN3CC[C@H]2C[C@@H]3CNC(=O)Nc2cccc(C#N)c2)n1` here?
Answer: inconclusive: 20 µM [inhibitor, single point]

Question: With `O=C(NCC1CCOCC1)[C@@H]1C[C@@H](c2ccc(F)cc2)N([S+](=O)([O-])c2cccnc2)C1` as the compound, how does the “outcome” value read?
Answer: inactive

Question: For `CCN(CC)Cc1cnc2c(C(=O)N3CCCCC3CCO)cnn2c1` (stereo not drawn), which “activity, negative = inhibition” value is on record?
Answer: inactive: -17.4%

Question: With `CCN(CC)S(=O)(=O)c1ccc(NC(=O)[C@H](CCSC)N2Cc3ccccc3C2=O)cc1` as the compound, how does the Potency read?
Answer: inconclusive: 17.8 µM [inhibitor, single point]

Question: Which Potency does the source give for `Cc1cccc(NC(=O)Cn2nc3n(c2=O)CCCC3)c1C` here?
Answer: inconclusive: 1.58 µM [inhibitor, full curve, poor fit]

Question: Which Potency does the source give for `C[S+](=O)([O-])N1CCCC2(Cc3ccccc3CN2C(=O)c2ccc(Cl)cc2)C1` (stereo not drawn) here?
Answer: inconclusive: 11.2 µM [inhibitor, single point]

Question: With `O=C1CCN(Cc2ccncc2)CCCC(C(=O)NCCCN2CCCc3ccccc32)CCN1` (stereo not drawn) as the compound, how does the Potency read?
Answer: inconclusive: 7.94 µM [inhibitor, partial curve, poor fit]

Question: Which activity, negative = inhibition does the source give for `CN1CCN(c2nc3c(c(=O)[nH]2)CCN(Cc2ccc(Br)o2)CC3)CC1` here?
Answer: inactive: 78.5% [at 5.79 µM]

Question: Which Potency does the source give for `O=S(=O)(c1ccc(C(F)(F)F)cc1)N1CCC(C2CCNC2)CC1` (stereo not drawn) here?
Answer: inconclusive: 0.562 µM [inhibitor, full curve, poor fit]

Question: For `COCCCn1c(C)cnc1CC1CCN(C(=O)NC2CCCCC2)CC1`, which “activity, negative = inhibition” value is on record?
Answer: inactive: -9.23%

Question: With `CC(C(=O)NCc1ccccc1)N1C(=O)COc2ccc(C(=O)COc3ccc(F)cc3)cc21` (stereo not drawn) as the compound, how does the Potency read?
Answer: inconclusive: 2.24 µM [inhibitor, single point]

Question: With `CCOCc1nc(C2CCCN(C(=O)Cc3ccc(OC)cc3)C2)no1` (stereo not drawn) as the compound, how does the “activity, negative = inhibition” value read?
Answer: inactive: 8.94%

Question: For `Cc1nc(-c2c3n(c(=O)n(CC(=O)Nc4ccccc4Cl)c2=O)CCCCC3)no1`, which Potency is on record?
Answer: inconclusive: 3.98 µM [inhibitor, single point]

Question: For `Cn1c(=O)n([C@H]2CCCN(C(=O)Nc3ccc(F)cc3F)C2)c2ncccc21`, which “outcome” value is on record?
Answer: inactive

Question: With `CC1CCCCC1Nc1ncnc2c1CN(C1CCCNCC1)C(=O)CN2C` (stereo not drawn) as the compound, how does the Potency read?
Answer: inconclusive: 6.31 µM [inhibitor, partial curve]

Question: Which “activity, negative = inhibition” value does the source give for `COc1cc(CN2CCN(C)C(C(=O)O)C2)c(Cl)cc1OC(C)C` (stereo not drawn) here?
Answer: inactive: 8.38%

Question: Which Potency does the source give for `Cc1ccc(-c2cnc(NCc3c(F)cccc3Cl)n2C)cc1` here?
Answer: inconclusive: 11.2 µM [inhibitor, partial curve]

Question: With `CCOc1ccc(NC(=O)Cn2c(=O)c(CNc3ccc(OC)cc3)cc3ccc(OC)cc32)cc1` as the compound, how does the Potency read?
Answer: inconclusive: 10 µM [inhibitor, single point]

Question: For `O=C(NCc1ccccc1)N1CCCC(c2nccn2CC2CCC2)C1` (stereo not drawn), which Potency is on record?
Answer: inconclusive: 12.6 µM [inhibitor, partial curve, poor fit]

Question: With `CCOC(=O)c1cc(S(=O)(=O)N2CCN(c3cc(Cl)ccc3C)CC2)[nH]n1` as the compound, how does the Potency read?
Answer: inconclusive: 20 µM [inhibitor, single point]

Question: With `O=C(c1ccco1)N1[C@H]2CC[C@@H]1c1cnc(-c3ccc(F)cc3)nc1C2` as the compound, how does the Potency read?
Answer: inconclusive: 8.91 µM [inhibitor, single point]

Question: For `CCOC(=O)c1ccc(NC(=O)c2nsc3ccccc23)cc1`, which “activity, negative = inhibition” value is on record?
Answer: inactive: 6.12%

Question: For `COc1ccc(C(=O)N[C@@H]2CCC[C@@H]2C(=O)NCCCc2ccccc2)cc1`, which Potency is on record?
Answer: inconclusive: 10 µM [inhibitor, single point]

Question: Which Potency does the source give for `CN1CCCCCCN(S(=O)(=O)c2cccs2)[C@H]2CCC[C@H]2C1=O` here?
Answer: inconclusive: 2.51 µM [inhibitor, full curve]

Question: With `C=C(C)CN(C)C(=O)Cc1c2c(n(Cc3ccccc3F)c1C)CCCC2=O` as the compound, how does the Potency read?
Answer: inconclusive: 17.8 µM [inhibitor, partial curve, poor fit]

Question: Which “activity, negative = inhibition” value does the source give for `Cc1cn2cc(C(=O)NCc3cn4c(n3)SCC4)ccc2n1` here?
Answer: inactive: 4.03%

Question: Which Potency does the source give for `CC(C)(C)CC(=O)N1CCC(N2C(=O)C3(CCCCC3)C2c2ccncc2)CC1` (stereo not drawn) here?
Answer: inconclusive: 5.01 µM [inhibitor, partial curve, poor fit]

Question: Which Potency does the source give for `COc1ccc(-c2nnc3n2CCN(C(=O)Cc2ccccn2)C3)cc1` here?
Answer: inconclusive: 14.1 µM [inhibitor, single point]

Question: Which “activity, negative = inhibition” value does the source give for `Cc1c(Cl)cccc1NC(=O)Cn1cccc1-c1nc(-c2ccccc2)no1` here?
Answer: inactive: -10.8%

Question: With `CCN1CCN(c2nc3c(s2)CN(Cc2ccccn2)CC3)CC1` as the compound, how does the “outcome” value read?
Answer: inactive

Question: For `COCCCn1c(C)cc(C(=O)NCCc2noc(-c3ccccc3)n2)c1C`, which Potency is on record?
Answer: inconclusive: 15.8 µM [inhibitor, partial curve, poor fit]

Question: For `O=C(c1cccc(F)c1F)N1CCOc2ccc(CN3CCN(c4ccccn4)CC3)cc2C1`, which “activity, negative = inhibition” value is on record?
Answer: inactive: -1.91%

Question: With `CC(C)CNC(=O)c1ccc2c(c1)NC(C)(CNc1ccccc1)CO2` (stereo not drawn) as the compound, how does the Potency read?
Answer: inconclusive: 1.12 µM [inhibitor, full curve, poor fit]

Question: With `Cc1cc(C)cc(N2CCN(Cc3cn(-c4ccccc4)nn3)CC2=O)c1` as the compound, how does the Potency read?
Answer: active: 11.2 µM

Question: For `CC(C)(C)C(=O)N[C@H]1C[C@@H](Cc2cc(-c3ccccc3)on2)C1(C)C`, which Potency is on record?
Answer: inconclusive: 20 µM [inhibitor, single point]

Question: With `COc1ccc(-c2noc([C@@H]3C[C@H](NS(=O)(=O)c4cccs4)CN3C)n2)cc1` as the compound, how does the Potency read?
Answer: inconclusive: 11.2 µM [inhibitor, partial curve, poor fit]

Question: Which Potency does the source give for `CCCCN1CCN(C(=O)C2CCCN(c3cnn(Cc4ccccc4)c(=O)c3)C2)CC1` (stereo not drawn) here?
Answer: inconclusive: 12.6 µM [inhibitor, single point]

Question: For `CCn1c(C)ccc(C(=O)N[C@@H]2COCC[C@H]2Oc2ccccn2)c1=O`, which “activity, negative = inhibition” value is on record?
Answer: inactive: -9.65%

Question: For `Cc1ccc(NC(=O)c2cc3c(N(C)Cc4ccccc4)nc(C)cn3n2)c(F)c1`, which Potency is on record?
Answer: inconclusive: 3.16 µM [inhibitor, full curve, poor fit]

Question: For `CCc1ccc(CNC(=O)c2ccc3c(c2)N(C)C2CCCCN2C3=O)cc1` (stereo not drawn), which Potency is on record?
Answer: inconclusive: 4.47 µM [inhibitor, partial curve, poor fit]

Question: Which Potency does the source give for `Cc1nc(-c2cccc(S(=O)(=O)N3CCC(C(=O)NCc4ccccc4)CC3)c2)no1` here?
Answer: inconclusive: 14.1 µM [inhibitor, partial curve, poor fit]

Question: For `Cn1cccc1CN1CCC2(C1)C(=NC1CCCCC1)NC(=O)N2c1cc(F)cc(F)c1` (stereo not drawn), which Potency is on record?
Answer: inconclusive: 6.31 µM [inhibitor, partial curve, poor fit]
